Assay results taken from paper PMC4336329 (PLoS ONE, 2015).
In all, about 310,000 compounds went through this assay and about 2,200 (0.71%) showed an effect of 50% or more. The effect is printed as a negative number. The list shows a part of the results.

These compounds were tested against human ether-à-go-go-related gene (hERG) potassium channel (human, UniProt Q12809) (assay: primary screen, population patch clamp on CHO cells stably expressing hERG).
Sequence of human ether-à-go-go-related gene (hERG) potassium channel (Q12809 whole entry, looked up): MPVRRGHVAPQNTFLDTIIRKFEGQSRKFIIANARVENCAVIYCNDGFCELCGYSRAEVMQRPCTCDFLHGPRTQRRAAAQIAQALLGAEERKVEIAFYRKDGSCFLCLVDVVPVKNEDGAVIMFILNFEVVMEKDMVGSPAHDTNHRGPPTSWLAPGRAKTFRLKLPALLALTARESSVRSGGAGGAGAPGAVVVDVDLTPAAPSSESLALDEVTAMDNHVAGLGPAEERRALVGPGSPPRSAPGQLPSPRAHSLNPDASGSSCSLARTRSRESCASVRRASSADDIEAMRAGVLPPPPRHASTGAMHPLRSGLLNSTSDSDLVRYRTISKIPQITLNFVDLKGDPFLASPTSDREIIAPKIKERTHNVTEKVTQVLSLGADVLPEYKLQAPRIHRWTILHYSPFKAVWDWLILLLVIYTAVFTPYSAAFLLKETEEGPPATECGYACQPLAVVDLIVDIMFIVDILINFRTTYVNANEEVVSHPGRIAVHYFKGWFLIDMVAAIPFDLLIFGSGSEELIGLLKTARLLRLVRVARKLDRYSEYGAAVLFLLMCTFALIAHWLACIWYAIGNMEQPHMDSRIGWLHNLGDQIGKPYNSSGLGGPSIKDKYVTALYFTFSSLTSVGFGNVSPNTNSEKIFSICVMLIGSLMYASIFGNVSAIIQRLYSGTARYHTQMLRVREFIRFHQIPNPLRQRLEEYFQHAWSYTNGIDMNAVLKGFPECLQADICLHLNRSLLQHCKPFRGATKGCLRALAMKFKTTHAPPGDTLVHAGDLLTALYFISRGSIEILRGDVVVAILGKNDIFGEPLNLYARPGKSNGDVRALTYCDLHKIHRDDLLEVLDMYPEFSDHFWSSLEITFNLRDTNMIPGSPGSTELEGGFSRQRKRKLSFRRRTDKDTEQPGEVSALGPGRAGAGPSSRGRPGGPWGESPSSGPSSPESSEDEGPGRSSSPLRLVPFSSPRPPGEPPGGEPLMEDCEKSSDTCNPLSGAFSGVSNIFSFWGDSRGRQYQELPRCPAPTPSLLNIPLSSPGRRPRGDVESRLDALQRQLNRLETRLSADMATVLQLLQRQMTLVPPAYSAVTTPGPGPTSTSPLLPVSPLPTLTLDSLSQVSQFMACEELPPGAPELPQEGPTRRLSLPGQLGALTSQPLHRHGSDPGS

| Compound | hERG current change (%, negative = inhibition) at 1uM [%] |
| --- | --- |
| CC(C)C(c1nnnn1Cc1cccs1)N1CCN(C(=O)c2ccco2)CC1 (stereo not drawn) | -1.53 |
| CCOc1ccc(C(=O)c2ccc([N+](=O)[O-])cc2Cl)cc1 | 9.02 |
| Cc1ccc(NC(=O)CSc2nnc3ccccn23)cc1S(=O)(=O)N1CCOCC1 | 9.86 |
| O=C(CCc1ccccc1)Nc1cccnc1 | 11.9 |
| CNC(=O)c1[nH]cnc1C(=O)Nc1ccccc1C | 12.8 |
| CCOc1ccc(NC2OCC(O)C(O)C2O)c([N+](=O)[O-])c1 (stereo not drawn) | 9.59 |
| CCCCN(C(=O)CSCC(=O)Nc1ccc(C)cc1)c1c(N)n(CCCC)c(=O)[nH]c1=O | 11.1 |
| CCC(C)(C)NC(=O)C(c1ccc(OC)cc1)N(C(=O)CCC(=O)Nc1cc(C)on1)C(C)(C)C (stereo not drawn) | 5.18 |
| CC1CN(CC(=O)Nc2ccccc2Sc2ccccc2)CC(C)O1 (stereo not drawn) | -7.58 |
| CC(NC(=O)CSc1ncccn1)c1ccccc1 (stereo not drawn) | 3.48 |
| O=C1Nc2ccccc2C1Cc1nc2ccccc2c(=O)n1-c1ccccc1 (stereo not drawn) | 13.6 |
| COc1cccc(N2CCN(C(=O)c3cn(Cc4ccccc4)nc3-c3cccnc3)CC2)c1 | 0.728 |
| Cc1ccc(/C(O)=C2/C(=O)C(=O)N(Cc3cccnc3)C2c2ccccn2)cc1 (stereo not drawn) | 12.5 |
| COc1cccc(CSc2ccc(S(=O)(=O)N3CCOCC3)cc2C(=O)NCC2CCCO2)c1OC (stereo not drawn) | 9.75 |
| O=C(O)CSCC(=O)N1CCN(S(=O)(=O)c2cc(Cl)cc(Cl)c2)CC1 | 13.5 |
| O=c1c2ccccc2nc(COc2ccccc2)n1/N=C/c1c[nH]c2ccccc12 | 21.6 |
| COc1ccc2nc(NC(=O)c3ccc(Br)s3)sc2c1 | 17.7 |
| Br.CCCCCCn1c2c(c(=N)c3c1CCC3)CCC2 | -54 |
| CCO[C@H]1OC(C(=O)O)=C[C@@H](C2CC2)[C@@H]1CCCO | 8.98 |
| CCCCn1nnnc1NCc1cccs1 | -5.45 |
| N#C/C(=C\c1ccc(N2CCOCC2)o1)c1ccccc1 | 14.7 |
| O=C1S/C(=C/c2ccccc2)C(=O)N1CC(O)Cn1c2ccccc2c2ccccc21 (stereo not drawn) | 10.4 |
| O=C1c2ccccc2-n2c1nc1ccccc1c2=O | 13 |
| CCN1C=C(C(=O)OC)C(c2cccc(OC)c2OC)C(C(=O)OC)=C1 | 8.22 |
